The supplement of paper PMC10126150
Values marked as one replicate rest on one cluster of the flow cell; about a third of the high ones do not repeat.

What follows are sequences tested on ATP (assay: switch fluorescence ratio, 500 uM ATP over buffer (Cy3 cluster intensity, sum of 5 cycles each) (fold (ratio)); higher = stronger signal-on switching upon ATP binding; sequences stand for … in TCGTCGGCAGCGTCAGATGTGTATAAGAGACAGTTTTTTTTTTTTTTTTTTTTTTTTT…TC). Conditions: aptamer strand: ATP DNA aptamer (quencher-CACCTGGGGGAGTATTGCGGAGGAAGG + anchor), 100 nM annealed; ATP concentration: 500 uM; one replicate.
Method in brief: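 Five buffer/ATP imaging cycles were run on Cy3-labelled switching-strand clusters on a modified Illumina MiSeq flow-cell, with NaOH stripping and re-annealing between cycles. In each cycle, clusters annealed to 100 nM quencher-labelled ATP aptamer were imaged in selection buffer, then after 15 min with 500 uM ATP at 22 °C. Per cluster, the fluorescence ratio is summed target-cycle over summed buffer-cycle Cy3 intensity, averaged per switch-domain sequence. Only clusters within 100-1000 RFU were kept.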
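Note: ATP exposure 15 min at 22 °C before imaging.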

| Sequence | switch fluorescence ratio |
| --- | --- |
| TTATAGTCTG | 0.999 |
| GTTCGGACCT | 1.25 |
| GGCGCGTGGG | 1.06 |
| AGACGGCCAC | 1.46 |
| TTTGGTAG | 0.992 |
| GGTAGATAAA | 1.02 |
| TTAGACTTGT | 0.993 |
| CGTCCTAACT | 0.996 |
| GGCACTCCTG | 1 |
| TGTAGCGGGT | 1.02 |
| TCTGAATTCT | 1.01 |
| TGGGGTACTG | 1.03 |
| GATACACACA | 1.34 |
| AAATTATAGC | 0.977 |
| GTTTAGCCTT | 1.01 |
| GTAATCGAAC | 1.06 |
| ACAACCGAGC | 1.16 |
| CTTGCTGCGT | 1.02 |
| AACTAAGATT | 1.02 |
| ATATACACTA | 1.11 |
| GACTGGCACT | 1.1 |
| ATATACTTAA | 1.04 |

| Sequence | switch fluorescence ratio |
| --- | --- |
| CGAAATTCCC | 1.84 |
| GATGATCTAG | 0.986 |
| AGTAAGTAGT | 0.992 |
| CCAGTCGGCA | 1.03 |
| TACTATTCG | 0.945 |
| TTAGTTGTCC | 0.971 |
| ACGATTAACG | 1.05 |
| GTGGTAACTA | 1.01 |
| TACTGGTGCC | 1.07 |
| GGGGCGATGG | 0.997 |
| TTGGATTTCG | 0.997 |
| GCTTTGGAGT | 1.05 |
| AATCTACATG | 1.03 |
| ATAGCCTGGA | 0.997 |
| GGGTGCCTGC | 1 |
| CGGCCATCCA | 0.985 |
| ACATTATACT | 1.1 |
| CCCCTGGATC | 1.06 |
| AGATAACGAG | 0.988 |
| CGGTCATCGG | 0.976 |
| GACTCATCTG | 0.962 |
| GGTTCGGCCG | 1.01 |

| Sequence | switch fluorescence ratio |
| --- | --- |
| TAAGTTACGT | 1.09 |
| TGCATTTTCA | 1.01 |
| TCACTAATTT | 1.01 |
| ACCTCACAGC | 1.37 |
| TTTATATGG | 1.02 |
| CAATAGAACC | 1.01 |
| GATTCCTGAT | 0.991 |
| ATAATTGGTC | 0.977 |
| GACGATTTTT | 0.997 |
| AGGAATAAG | 0.982 |
| CATTTGTATA | 1 |
| TGTTGGATTC | 1.04 |
| GTGCTGAGGT | 1.04 |
| TCCGCCAATT | 5.98 |
| TGCATACGGG | 1.08 |
| GTTTCTGATC | 1.01 |
| CAGTCCAGCG | 1 |
| GTAAGTATTG | 1.02 |
| GGGTGGATCA | 1.03 |
| ACGGGGCCCA | 1.02 |
| CCAGCGGAAA | 1.04 |
| ATATTGGGAT | 0.981 |

| Sequence | switch fluorescence ratio |
| --- | --- |
| CATTTGTATC | 1.05 |
| CAAGAACCGG | 1.01 |
| TTAGTGCGCG | 1.05 |
| AACTTCCTTC | 2.19 |
| TAAGGAGGTT | 0.947 |
| TTTTTGGCC | 1.01 |
| AAATAATTAC | 1 |
| AGGAATCGCG | 0.993 |
| TTACCCCGGC | 1.1 |
| TTCTTTGGTC | 1.02 |
| AATATGTCGT | 1 |
| GGGAATGCGT | 1.02 |
| GGAAGAAATT | 0.972 |
| CGGCAGCATG | 1.05 |
| CAGTTTTATG | 1.02 |
| AGCCAGTTTG | 0.964 |
| ACGTGACACA | 1.22 |
| GAAGTAGATC | 1.01 |
| TCCGCTCCAT | 1.56 |
